Laboratory results reported in paper PMC3989272.
Substitutions are numbered along the chain they refer to. No constants are given. Whether binding was seen depends on the method and setting. For some of these results: In cells and extracts the contact can be indirect. Some entries that bind do so weakly or less than the wild type. For some of these results: Sequences can lack the tags named with a protein.

Amino acid sequences for entries named in this document (tags omitted). A change or cut given only in a name is not applied to a line headed by its entry.
UniProt P29476: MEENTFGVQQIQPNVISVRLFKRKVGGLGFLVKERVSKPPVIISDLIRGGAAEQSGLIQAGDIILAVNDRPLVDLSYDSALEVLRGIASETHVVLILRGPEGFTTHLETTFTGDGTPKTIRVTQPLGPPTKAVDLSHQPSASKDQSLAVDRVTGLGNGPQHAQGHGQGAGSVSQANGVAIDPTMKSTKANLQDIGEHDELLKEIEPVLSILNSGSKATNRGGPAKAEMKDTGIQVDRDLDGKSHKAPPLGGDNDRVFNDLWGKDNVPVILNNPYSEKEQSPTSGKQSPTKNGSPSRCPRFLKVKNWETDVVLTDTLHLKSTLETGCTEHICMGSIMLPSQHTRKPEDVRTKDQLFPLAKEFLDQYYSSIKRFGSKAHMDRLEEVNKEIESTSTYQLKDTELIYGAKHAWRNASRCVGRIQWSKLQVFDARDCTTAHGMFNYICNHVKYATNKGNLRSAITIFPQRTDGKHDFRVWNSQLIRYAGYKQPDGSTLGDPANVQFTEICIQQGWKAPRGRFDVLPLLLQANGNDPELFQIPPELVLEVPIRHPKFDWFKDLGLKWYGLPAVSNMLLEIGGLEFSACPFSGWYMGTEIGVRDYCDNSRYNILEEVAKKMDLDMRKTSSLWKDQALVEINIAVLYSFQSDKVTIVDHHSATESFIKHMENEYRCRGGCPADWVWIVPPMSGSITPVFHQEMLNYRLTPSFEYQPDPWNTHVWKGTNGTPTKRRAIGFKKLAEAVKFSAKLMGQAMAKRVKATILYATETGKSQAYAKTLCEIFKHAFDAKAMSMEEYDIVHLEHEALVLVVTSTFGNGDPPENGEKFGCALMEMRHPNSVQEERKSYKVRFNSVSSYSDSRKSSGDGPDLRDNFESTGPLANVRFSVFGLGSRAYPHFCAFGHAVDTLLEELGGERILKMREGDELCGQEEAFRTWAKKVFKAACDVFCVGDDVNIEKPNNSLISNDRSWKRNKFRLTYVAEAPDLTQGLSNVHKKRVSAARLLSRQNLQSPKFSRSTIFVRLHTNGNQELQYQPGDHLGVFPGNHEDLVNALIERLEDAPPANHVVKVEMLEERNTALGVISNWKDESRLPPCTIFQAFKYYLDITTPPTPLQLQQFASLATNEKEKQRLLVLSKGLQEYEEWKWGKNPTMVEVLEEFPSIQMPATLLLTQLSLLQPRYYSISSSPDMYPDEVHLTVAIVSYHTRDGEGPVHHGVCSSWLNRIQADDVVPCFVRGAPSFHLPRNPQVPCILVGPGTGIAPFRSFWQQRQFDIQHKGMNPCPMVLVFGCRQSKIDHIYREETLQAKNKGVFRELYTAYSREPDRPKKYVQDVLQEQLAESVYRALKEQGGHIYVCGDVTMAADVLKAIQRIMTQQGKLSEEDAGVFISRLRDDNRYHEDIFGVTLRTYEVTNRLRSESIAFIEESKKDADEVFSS

Columns and labels:
[1] = target: T1, recombinant pleckstrin homology domain of PKD1 fused to GST (UniProt Q62101); test: pull-down; rat brain extracts (500 µg) incubated for 2 h at 4°C with GST or GST-PH pre-adsorbed onto glutathione-agarose beads; nNOS detected by Western blot; only the target purified
T1 sequence: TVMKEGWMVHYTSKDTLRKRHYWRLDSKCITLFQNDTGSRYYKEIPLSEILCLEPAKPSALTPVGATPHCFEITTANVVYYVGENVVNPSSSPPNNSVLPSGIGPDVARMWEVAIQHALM

full-length α-syntrophin = target: T2, full-length α-syntrophin (UniProt Q61234); test: two-hybrid; one to one yeast two-hybrid; baits fused to the GAL4 DNA-binding domain, nNOS preys fused to the GAL4 activation domain (pGAD); growth on Leu-/Trp-/His- plates with 12 mM 3-amino triazole and X-Gal assay
T2 sequence: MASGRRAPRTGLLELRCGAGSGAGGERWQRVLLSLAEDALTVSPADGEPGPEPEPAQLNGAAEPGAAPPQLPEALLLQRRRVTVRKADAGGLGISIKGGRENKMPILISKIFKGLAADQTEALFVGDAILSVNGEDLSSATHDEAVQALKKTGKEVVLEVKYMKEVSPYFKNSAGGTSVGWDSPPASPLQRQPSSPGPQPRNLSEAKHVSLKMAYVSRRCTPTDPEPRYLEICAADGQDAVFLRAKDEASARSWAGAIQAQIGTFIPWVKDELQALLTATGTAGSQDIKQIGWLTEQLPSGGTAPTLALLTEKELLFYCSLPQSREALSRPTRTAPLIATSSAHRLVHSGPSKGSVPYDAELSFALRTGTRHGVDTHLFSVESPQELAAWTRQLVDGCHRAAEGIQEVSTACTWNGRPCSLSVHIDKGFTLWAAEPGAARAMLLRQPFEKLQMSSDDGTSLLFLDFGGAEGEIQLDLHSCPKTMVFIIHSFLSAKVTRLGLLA

[2] = target: T3, C-terminus of rat CAPON (rat); test: as above
T3 sequence: ELGDSLDDEIAV

[3] = target: T4, shorter C-terminal sequence of wild-type PKD1 (Pro-591 to Leu-918), two-hybrid bait (UniProt Q62101); test: as above
T4 sequence: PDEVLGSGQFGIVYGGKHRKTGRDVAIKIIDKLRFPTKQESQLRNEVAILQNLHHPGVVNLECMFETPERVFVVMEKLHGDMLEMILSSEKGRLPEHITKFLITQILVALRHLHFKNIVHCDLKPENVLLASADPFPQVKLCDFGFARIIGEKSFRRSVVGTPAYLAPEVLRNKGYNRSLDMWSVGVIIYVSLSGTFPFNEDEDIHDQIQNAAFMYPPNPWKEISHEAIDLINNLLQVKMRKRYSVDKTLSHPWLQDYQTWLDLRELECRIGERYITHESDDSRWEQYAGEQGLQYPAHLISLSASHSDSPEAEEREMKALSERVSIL

[4] = target: T5, shorter C-terminal sequence of PKD1-Ser916Glu (Pro-591 to Leu-918), two-hybrid bait (UniProt Q62101); test: as above
T5 sequence: T4 sequence with S326E

[5] = target: T1, recombinant pleckstrin homology domain of PKD1 fused to GST; test: pull-down; 0.5, 1 and 5 µg of purified nNOS incubated for 2 h at 4°C with 8 µg of GST or GST-PH pre-adsorbed onto glutathione-agarose beads; nNOS detected by Western blot; both purified

Row | binding [1] | binding (full-length α-syntrophin) | binding [2] | binding [3] | binding [4] | binding [5] | Substance
1 | binds |  |  |  |  |  | endogenous neuronal nitric oxide synthase (nNOS) (from UniProt P29476 1-1429) (enzyme)
2 |  | no binding | binds | no binding | no binding |  | nNOS PDZ domain (aa 1–102), two-hybrid prey (from UniProt P29476 1-102) (domain or fragment)
3 |  | binds | binds | no binding | no binding |  | nNOS PDZ domain with the beta-hairpin extension (aa 1–131), two-hybrid prey (from UniProt P29476 1-131) (domain or fragment)
4 |  |  |  |  |  | binds | purified full-length rat nNOS (from UniProt P29476 1-1429) (enzyme)
